86 compounds from PubChem BioAssay AID463173 (ICCB-Longwood Screening Facility, Harvard Medical School, 2010) can be followed below.

Screen size: about 52,000 compounds; about 1,700 (3.3%) were called active. Rule as the data show it: active = survival mostly below about 52% (no sharp cut-off); inactive = mostly above about 56%. Some of the results follow.

This test concerns Wild type. Kind of test: S. aureus survival, RN4220 and DeltatarO strains – OD600, teichoic acid synthesis inhibitors, primary screen (AID 463173). The settings on record: S. aureus RN4220 wild type/DeltatarO growth, OD600, 18 h, hits give low values, screened at 18.75 µg/mL (by protocol).
With `O=C(CN1C(=O)C2(SCC(=O)N2c2cccc(Cl)c2)c2ccccc21)NCCc1ccccc1` (stereo unspecified), the survival was inactive: 126%. With `CCOc1ccc(NC(=O)c2c(Nc3ccccc3C)sc(C(=O)c3ccccc3)c2N)cc1` the figure was inactive: 83%; with `CC(=O)Nc1ccc(Cc2ccncc2)cc1`, inactive: 102%; with `CCOc1ccc(NC(=O)C(Cc2ccccc2)NS(=O)(=O)c2ccc3c(c2)oc(=O)n3C)cc1` (stereo unspecified), inactive: 106%. With `Cc1c(Cl)cccc1-c1ccc(CNCCSc2nnnn2-c2ccccc2)o1` the figure was inactive: 53%; with `CCS(=O)(=O)c1ncc(N(Cc2ccccc2)Cc2ccco2)c(C(=O)Nc2cccc(Cl)c2C)n1`, inactive: 84%. Regarding `COc1ccccc1C(=O)Nc1ccc2nc(SCC(=O)N(C)c3ccccc3)sc2c1`, the survival was inactive: 84%.

In the case of `CCOc1ccc(CNC(=O)c2ccc3c(c2)c(C)c(C)n3Cc2ccccc2)cc1OC`, the survival is inactive: 72%. In the case of `Cc1ccc(S(=O)(=O)NCC2CCCO2)cc1` (stereo unspecified), the survival was inactive: 116%. `COC(=O)c1ccc(NC(=O)CSc2nc3cc4c(cc3cc2C#N)OCCO4)cc1`: the survival was inactive: 102%. With `COc1ccc(CCNC(=O)c2ccc3c(c2)N(Cc2ccccc2)C(=O)c2ccccc2S3=O)cc1OC` (stereo unspecified) the figure was inactive: 103%; with `COC(=O)c1ccc(Cl)cc1NC(=O)Nc1nnc(N2CCCC2)s1`, inactive: 84%. With `Cc1ccc(C)c(Cn2c3ccccc3c3cnn(CC(=O)NC(C)CCc4ccccc4)c(=O)c32)c1` (stereo unspecified) the figure was inactive: 80%; with `Cc1ccc(-n2ncc(C(=O)N3CCN(c4cc(Cl)ccc4C)CC3)c2C2CCN(C(=O)OC(C)(C)C)CC2)cc1`, inactive: 143%; with `O=C(Nn1c(Cc2ccccc2)nc2ccccc2c1=O)c1ccco1`, inactive: 107%. With `C/C(COc1ccccc1OCC(=O)O)=N\NC(=O)c1ccncc1` the figure was inactive: 103%. In the case of `COC(=O)CSc1ncc2c(n1)-c1ccccc1N(Cc1ccc(Cl)cc1)S2(=O)=O`, the survival is inactive: 73%. `COc1ccc(CCn2c3c(c(=O)[nH]c2=O)C(NC(=O)c2ccc(Cl)cc2)(C(F)(F)F)C(=O)N3)cc1OC` (stereo unspecified): the survival was inactive: 78%. Take `COc1ccc(CNc2ncnc3c2nc2n3CCCC2)cc1`: the survival is inactive: 129%. With `Cn1ncc2c(Nc3cc(C(F)(F)F)ccc3Cl)ncnc21` the figure was inactive: 77%. For the compound `COc1cccc(NC(=O)CN2C(=O)c3cccc4cccc2c34)c1`, the survival was inactive: 98%. As to `Cc1cccc(CNC(=O)Cn2c(-c3cccs3)cc3ccccc32)c1`, the survival is inactive: 135%.

Consider `COc1ccc(NC(=O)c2c(C)oc3ccc(O)c(CN4CCC(C)CC4)c23)cc1Cl`, for which the survival was inactive: 62%.

In the case of `Cc1cccc(OCC(=O)Nc2ccccc2C(=O)OCc2cc(=O)n3ccsc3n2)c1`, the survival was inactive: 73%.

As for `CCN(c1cccc(C)c1)S(=O)(=O)c1cc(Br)cc2c1N(C(C)=O)C(C)C2` (stereo unspecified), the survival is inactive: 75%. Turning to `CC(NC(=O)c1ccc2c(c1)N(Cc1ccc(Cl)cc1)C(=O)CS2)c1ccccc1` (stereo unspecified), the survival is inactive: 73%. With `CCCN(c1c(C)n(C)n(-c2ccccc2)c1=O)S(=O)(=O)c1ccc(C)cc1` the figure was inactive: 89%. With `CCc1ccc(-n2nnc(-c3nc(-c4cccs4)no3)c2N)cc1` the figure was inactive: 93%; with `CC1CCN(C(=O)CSc2n[nH]c(-c3ccc(F)cc3)n2)CC1`, inactive: 76%; with `COc1ccc2c(c1)c1c(c(=O)n(-c3ccccc3C)c(=O)n1Cc1cccc(C(F)(F)F)c1)n2C`, inactive: 78%.

Take `CC(C)OC(=O)c1ccc(Cn2nnc3sc4c(c3c2=O)CCCC4)cc1`: the survival was inactive: 17%. Take `CC1=CS(=O)(=O)CC1`: the survival is inactive: 93%. In the case of `Nc1nonc1/C(=N/OC(=O)c1ccccc1)N1CCOCC1`, the survival is inactive: 119%. With `CC(C)(C)C(=O)Nc1ccc(-c2nc3ccc(NC(=O)C(C)(C)C)cc3[nH]2)cc1` the figure was inactive: 148%.

Regarding `CCc1nc2ccc(C(=O)N3CCN(c4cc(Cl)ccc4C)CC3)cc2nc1CC`, the survival was inactive: 71%.

Consider `CC(C)OC(=O)Cn1nnc(-c2ccccc2)n1`, for which the survival is inactive: 109%. Turning to `Cc1ccc(S(=O)(=O)NCC2CCC(C(=O)NCCc3ccccc3)CC2)cc1` (stereo unspecified), the survival is inactive: 72%. With `CCC(=O)N1CCc2cc(CNS(=O)(=O)c3cc(OC)ccc3OC)ccc21` the figure was inactive: 131%. With `CC(=O)Nc1ccc(S(=O)(=O)NC2(C(F)(F)F)C(=O)Nc3c2c(=O)[nH]c(=O)n3-c2cccc(Cl)c2)cc1` (stereo unspecified) the figure was inactive: 67%.

Take `CCOC(=O)c1cnc2cc(C(F)(F)F)ccc2c1Nc1ccc(F)cc1F`: the survival was active: -12%.

For `Cc1cccc(-c2nc(CN3CCCC(C(=O)N4CCN(c5cc(Cl)ccc5C)CC4)C3)c(C)o2)c1` (stereo unspecified), the survival was inactive: 75%. With `O=C(c1ccc(F)cc1)c1cn(Cc2ccccc2F)c2cc3c(cc2c1=O)OCCO3` the figure was inactive: 70%; with `Oc1ccc(Cl)cc1C1=Nc2ccccc2N=C(c2ccccc2)C1`, inactive: 140%; with `Cc1ccc(C(=O)C(C)OC(=O)C2CC(=O)N(C3CCCCC3)C2)cc1` (stereo unspecified), inactive: 108%. With `Cc1ccc(CSc2nc3cccnc3n2Cc2ccc(C(=O)NCc3ccco3)cc2)cc1` the figure was inactive: 84%. With `Cc1ccc(-c2nc3c(c(SCc4ccc(Br)cc4)n2)Cc2c(CO)cnc(C)c2O3)cc1` the figure was inactive: 81%; with `CSc1cccc(NC(=O)c2cnn(-c3ccc(F)cc3)c2-n2cccc2)c1`, inactive: 91%. For the compound `O=C(Nc1ccccc1)NC1CC2CCC(C1)N2Cc1nnnn1Cc1ccc2c(c1)OCO2` (stereo unspecified), the survival is inactive: 79%. Regarding `O=C(CSc1nc2c([nH]c3ccccc32)c(=O)n1-c1ccc(Cl)cc1)N1CCc2ccccc21`, the survival was inactive: 93%.

Regarding `O=C(CSc1nc2ccccc2nc1Cc1ccc(Cl)cc1)Nc1ccc2c(c1)OCO2`, the survival was inactive: 70%. On to `Cc1ccc2c(=O)cc(C(=O)Nc3ccc(S(=O)(=O)N(C)c4ccccc4)cc3)oc2c1C`, for which the survival was inactive: 87%. With `COc1ccc(CCNC(=O)CCc2c(C)c3cc4c(C)c(C)oc4cc3oc2=O)cc1OC` the figure was inactive: 113%; with `O=C(Cn1ncn2c(cc3sccc32)c1=O)NCCc1ccccc1`, inactive: 85%. With `CCOC(=O)c1ccc(NC2=CC(c3ccc(OCC)cc3)N(c3ccc(C(=O)OCC)cc3)C2=O)cc1` (stereo unspecified) the figure was inactive: 76%; with `CCn1cc(C(=O)NCC(C)C)c(=O)c2cc(F)c(N3CCN(C(=O)c4ccco4)CC3)cc21`, inactive: 107%. With `CCOC(=O)c1cnc2cc(C(F)(F)F)ccc2c1Nc1cc(C)ccc1OC` the figure was inactive: 67%; with `Cc1ccc(-c2nc(CCNC(=O)c3ccc(C)c(C)c3)cs2)cc1`, inactive: 85%; with `COc1ccc(-c2noc(CN(C)S(=O)(=O)c3c(C)cc(C)cc3C)n2)cc1OC`, inactive: 78%. Take `CCC(C(=O)Nc1cccc(Cl)c1C)n1nc(C)c2sc3ccccc3c2c1=O` (stereo unspecified): the survival is inactive: 84%.

In the case of `COc1ccc(C)cc1NC(=O)c1ccc(NS(=O)(=O)c2c(C)noc2C)cc1`, the survival was inactive: 85%. Regarding `Cc1[nH]n(-c2ccccc2)c(=O)c1/C=N/NC(=O)c1ccccc1`, the survival is inactive: 90%. Regarding `CC(=O)N1c2ccccc2C(=O)C1N1CCN(c2ccccc2F)CC1` (stereo unspecified), the survival was inactive: 72%. With `COc1ccccc1-c1nc2n(n1)C(c1ccccc1Cl)C(C(=O)Nc1cccnc1)=C(C)N2` (stereo unspecified) the figure was inactive: 83%; with `CCCCn1cc(S(=O)(=O)c2ccc(C)cc2)c(=O)c2cc(F)c(N3CCCCC3)cc21`, inactive: 138%. With `CCOc1ccccc1NC(=O)CSc1nnc2[nH]c(=O)cc(C)n12` the figure was inactive: 146%. Take `Cc1cc(O)c(C(c2ccccc2)N2CCCCC2)c(=O)n1Cc1ccco1` (stereo unspecified): the survival is inactive: 77%. With `CC(C)(C)OC(=O)N1CCC(c2c(C(=O)NCc3ccccc3)cnn2-c2cccc(F)c2)CC1` the figure was inactive: 120%; with `Nc1ncnc2c1c1nc3ccccc3nc1n2CCc1ccccc1`, inactive: 87%. With `COCCCNC(=O)C1CCN(Cc2cc3ccccc3n2Cc2ccccc2C)CC1` the figure was inactive: 78%; with `Cc1oc(-c2ccc(Cl)cc2)nc1CN1CCCC(C(=O)NCCc2ccc(Cl)cc2)C1` (stereo unspecified), inactive: 86%; with `CCSc1nn(CC(=O)Nc2cccc(CC)c2)c(N)c1S(=O)(=O)c1ccccc1`, inactive: 95%. With `Cc1ccc(S(=O)(=O)c2c(O)cc(C)c(NS(=O)(=O)c3ccc(Br)cc3)c2C)cc1` the figure was active: -1%; with `COc1ccc(NC(=O)c2c(NCc3cccs3)sc3c2CCC(C)C3)c(OC)c1` (stereo unspecified), inactive: 66%.

In the case of `O=C(CSc1nnc(-c2ccccc2Cl)o1)N1CCCc2ccccc21`, the survival was inactive: 35%.

As to `Cc1nn(C)c2c1c(C(F)(F)F)cc(=O)n2C(C)C(=O)Nc1ccccc1F` (stereo unspecified), the survival was inactive: 89%.

Regarding `CCOc1ccc(C(=O)c2cn(CC(=O)Nc3ccc(Cl)cc3)c3cc4c(cc3c2=O)OCO4)cc1`, the survival is inactive: 134%. As for `COc1ccc(-c2nnc(SCC(=O)Nc3cccc(C(F)(F)F)c3)s2)cc1`, the survival was inactive: 99%. With `COc1ccc(S(=O)(=O)NCC(c2cccs2)S(=O)(=O)c2ccccc2)cc1OC` (stereo unspecified) the figure was inactive: 79%. With `Cc1c(C(=O)N(Cc2ccccc2F)C2CCS(=O)(=O)C2)oc2ccccc12` (stereo unspecified) the figure was inactive: 83%; with `Cc1cc(NNC(=S)S)nc(N)n1`, inactive: 103%; with `CC(=O)N1CCc2cc(Br)cc(S(=O)(=O)CCC(=O)N3CCN(c4ccc(F)cc4)CC3)c21`, inactive: 80%.

With `CCOc1ccc(/C=C(\C#N)C(=O)NCc2ccco2)cc1OC`, the survival was inactive: 103%. With `Cc1ccc(CN2CCC(CNC(=O)c3cnn(-c4ccccc4Cl)c3C3CCN(C(=O)OC(C)(C)C)CC3)CC2)cc1` the figure was inactive: 110%; with `COc1cc(/C=C/c2nc(C#N)c(N3CCN(C)CC3)o2)cc(OC)c1OC`, inactive: 84%; with `CN(C(=O)c1ccc2c(c1)N(Cc1cccc(Cl)c1)C(=O)c1ccccc1S2(=O)=O)C1CCCCC1`, inactive: 59%. With `COc1cccc(NS(=O)(=O)c2ccc3c(c2)n(C)c(=O)n3C)c1` the figure was inactive: 81%.
